Out of some 52,000 compounds screened, about 4,300 (8.3%) were called active. Cut-off read from the data, not from the text of the source: active = survival mostly below about 52% (no sharp cut-off); inactive = mostly above about 56%. The list shows a part of the results.

The assay has as its system DeltatarO mutant. Description: S. aureus survival, RN4220 and DeltatarO strains – OD600, teichoic acid synthesis inhibitors, primary screen (AID 463173). The following applies: S. aureus RN4220 wild type/DeltatarO growth, OD600, 18 h, active compounds read low, screened at 18.75 µg/mL (by protocol).
Consider `O=C(c1ccco1)c1cn(CCOc2ccc(Cl)cc2)c2ccccc12`, for which the survival is inactive: 78%.

In the case of `Cc1ccc(-c2noc(CSc3nnc(-c4ccc(Cl)cc4)n3C)n2)cc1`, the survival was inactive: 72%.

For the molecule `Cc1ccc(S(=O)(=O)NCc2cccnc2)cc1`, the survival was inactive: 73%.

For `O=C(c1cccs1)N1CCCc2cc(NS(=O)(=O)c3ccc(Cl)cc3)ccc21`, the survival is inactive: 93%.

As for `COc1ccc(C(CNC(=O)c2ccc(C)cc2)N2CCOCC2)cc1` (stereo unspecified), the survival is inactive: 82%.

Regarding `CCN(CC)C(=O)c1sc(NC(=O)C2c3ccccc3Oc3ccccc32)c(C(=O)OC(C)C)c1C`, the survival was active: 30%.

Turning to `c1ccc2oc(CCc3nc4ccccc4o3)nc2c1`, the survival was inactive: 88%.

Consider `CN(C)c1ccc(C(CNS(=O)(=O)c2cc(F)ccc2F)N2CCOCC2)cc1` (stereo unspecified), for which the survival is inactive: 117%.

As for `Cc1cc(C)c(Cn2c(=O)n(CCCCCC(=O)NCc3ccc4c(c3)OCO4)c(=O)c3sccc32)c(C)c1`, the survival was inactive: 97%.

Take `COc1cccc(NC(=O)Cn2c(=O)n(-c3cccc(OC)c3)c(=O)c3c4c(sc32)CCCC4)c1`: the survival was inactive: 107%.

Consider `COc1ccc(NS(=O)(=O)c2ccc3[nH]c4c(c3c2)CCCC4)c(OC)c1`, for which the survival is inactive: 82%.

Turning to `CCOc1ccc(Nc2nc3ccccc3c3nnc(CC)n23)cc1`, the survival was inactive: 62%.

As for `O=C(NCc1ccco1)C1C2C3CCC(C3)C12` (stereo unspecified), the survival is inactive: 77%.

Consider `CC(C)OC(=O)c1cc(=O)[nH]c2ccccc12`, for which the survival is inactive: 97%.

With `COc1ccc(NC(=O)C2CCN(S(=O)(=O)c3c(C)noc3/C=C/c3ccco3)CC2)cc1`, the survival was inactive: 115%.

Turning to `CCN(C(=O)CN(C)S(=O)(=O)c1ccc2c(c1)n(C)c(=O)c(=O)n2C)c1cccc(C)c1`, the survival was inactive: 109%.

Regarding `Cn1c(=O)c2c(SCC(=O)NCc3ccco3)nc(-c3ccccc3F)nc2n(C)c1=O`, the survival was inactive: 93%.

Turning to `Cc1ccc(NC(=O)Nc2cc3c(cc2N2CCCCC2)n(C)c(=O)n3C)cc1Cl`, the survival is inactive: 99%.

For `O=C(O)CNC(=O)c1cncc(O)c1`, the survival is inactive: 86%.

Turning to `COc1ccc(NC(=O)CC2C(=O)N(c3ccccc3)C(=O)N2Cc2cccnc2)cc1` (stereo unspecified), the survival was inactive: 94%.

For the molecule `O=C(O)C1CC(=O)N(c2cccc(Cl)c2)C1` (stereo unspecified), the survival was inactive: 71%.

On to `Cc1ccc(CN(C(=O)c2ccccc2Br)C2CCS(=O)(=O)C2)o1` (stereo unspecified), for which the survival was inactive: 97%.

Consider `CC1CCC(NC(=O)c2ccc3c(c2)N(Cc2cccc(Cl)c2)C(=O)c2ccccc2S3=O)CC1` (stereo unspecified), for which the survival was active: 25%.

On to `COc1ccc(OCc2nc3ccccc3n2C(C)C)cc1`, for which the survival is inactive: 88%.

As to `O=C(NCc1ccc(Cl)cc1)C(=O)Nc1cccc(Br)c1`, the survival is inactive: 133%.

As for `O=C(Nc1ccc2oc(-c3ccc4ccccc4c3)nc2c1)c1cc(Br)ccc1Cl`, the survival is inactive: 75%.

With `Cc1ccc(-n2nc(-c3ccc(F)cc3)c3cnc4cc5c(cc4c32)OCO5)cc1C`, the survival is inactive: 82%.

As for `O=C(CNS(=O)(=O)c1ccccc1)Nc1ccc2c(c1)OCO2`, the survival is inactive: 100%.

For the molecule `CCc1ccc(NC(=O)CC(c2ccc(C)cc2)N2Cc3ccccc3C2=O)cc1` (stereo unspecified), the survival was inactive: 112%.

On to `O=C1C2CCCN2C(=S)N1C1CCCCC1` (stereo unspecified), for which the survival is inactive: 109%.

In the case of `COc1ccc(NC(=O)c2oc3ccc(S(=O)(=O)N(C)C4CCCCC4)cc3c2C)cc1Cl`, the survival is inactive: 71%.

With `O=C(CCC1CCCCC1)Nc1ncn[nH]1`, the survival is inactive: 71%.

With `CCc1ccc(-c2cc(C)no2)cc1S(=O)(=O)N1CCN(c2cccc(Cl)c2)CC1`, the survival was inactive: 89%.

In the case of `Cc1c(C(=O)Nc2ccc(Br)cc2F)oc2ccc(S(=O)(=O)N3CCC4(CC3)OCCO4)cc12`, the survival was inactive: 81%.

For `COc1cccc(-n2c(=O)c3c4c(sc3n(Cc3ccc(F)cc3Cl)c2=O)CCCC4)c1`, the survival was inactive: 140%.

With `O=C(CCCc1nc(-c2ccco2)no1)Nc1ccccc1[N+](=O)[O-]`, the survival is inactive: 83%.

Regarding `CCOC(=O)c1ccc(NC(=O)c2c(C)oc3nc(C)nc(N4CCCC4)c23)cc1`, the survival is inactive: 75%.

`CC(=O)Nc1c(C(=O)Nc2cccc(C)c2)nnn1-c1ccc(C)cc1`: the survival was active: 69%.

As for `CCC1CCCCN1S(=O)(=O)c1ccc(N2CCCCS2(=O)=O)cc1` (stereo unspecified), the survival was inactive: 75%.

Consider `COc1ccc(-c2[nH]ncc2C(=O)NCc2cccc(F)c2)cc1`, for which the survival was inactive: 86%.

In the case of `COc1ccc(C2=NN(C(C)=O)C(c3cn(-c4ccccc4)nc3-c3cccs3)C2)cc1` (stereo unspecified), the survival is inactive: 152%.

Take `Cc1cc(N2CCN(C)CC2)nc2ccc(NC(=O)Nc3ccccc3)cc12`: the survival was inactive: 65%.

On to `O=C(O)C1CCCCC1C(=O)Nc1cccc(C(=O)N2CCCCC2)c1` (stereo unspecified), for which the survival was inactive: 101%.

`COc1cccc(CC(=O)NCc2ccc3c(c2)CCN3C(C)=O)c1`: the survival is inactive: 80%.

In the case of `CN(C)S(=O)(=O)Nc1ccc(-c2cn3ccsc3n2)cc1`, the survival was inactive: 55%.

For `Cc1ccc2oc(C(=O)Nc3ccc(S(=O)(=O)N(C)Cc4ccccc4)cc3)cc(=O)c2c1`, the survival was inactive: 50%.

With `Cc1cccc(Cc2cnc(NC(=O)c3ccc4c(c3)CC(c3ccccc3)OC4=O)s2)c1` (stereo unspecified), the survival is inactive: 66%.

For the molecule `CCc1ccc(-n2c(=O)c3c4c(sc3n(CC(=O)NCCCOC)c2=O)CCC4)cc1`, the survival was inactive: 91%.

For `Cc1ccc(-n2nc(C(=O)N3CCN(c4ccccc4)CC3)c(=O)n(C)c2=O)cc1`, the survival was inactive: 124%.

With `COC(=O)c1ccccc1NC(=O)c1nc(S(=O)(=O)Cc2ccccc2F)ncc1Cl`, the survival was inactive: 110%.

On to `CCCCOc1ccc(S(=O)(=O)n2nc(C)c(S(=O)(=O)N3CCC(C)CC3)c2C)cc1`, for which the survival is inactive: 85%.

In the case of `CCCOC(=O)C(C)n1nnc2sc(-c3ccccc3)cc2c1=O` (stereo unspecified), the survival is inactive: 63%.

In the case of `Cc1ccn2c(Nc3ccc4c(c3)OCO4)c(-c3ccc(O)cc3)nc2c1`, the survival is inactive: 64%.

Consider `CCCN1CCN(c2ncnc3sc(C(=O)Nc4ccc(N(CC)CC)cc4C)c(C)c23)CC1`, for which the survival is inactive: 117%.

`O=C(CSCc1cnn(-c2ccccc2)c1-n1cccc1)NCc1ccccc1F`: the survival is inactive: 83%.

As to `COc1cccc(CNS(=O)(=O)c2cc(Br)cc3c2N(C(C)=O)C(C)C3)c1` (stereo unspecified), the survival was inactive: 128%.

With `COc1ccc(NC(=O)c2nc(SCc3ccccc3F)ncc2Cl)cc1`, the survival is inactive: 73%.

As for `O=C(NCCc1ccc(Cl)cc1)c1ccc2c(c1)N(Cc1ccccc1)CCS2`, the survival was inactive: 102%.

In the case of `COc1cccc(N2CCN(C(=O)c3ccc(CS(=O)c4cccc(Cl)c4)o3)CC2)c1` (stereo unspecified), the survival was inactive: 75%.

`O=C(Nc1ccc2oc(-c3cccnc3)nc2c1)c1ccc(-c2cccc(OC(F)(F)F)c2)o1`: the survival is inactive: 51%.

For `Cc1ccc(C)c(NC(=O)CCc2c(C)n(C)c3cc(-c4ccccc4C)nn3c2=O)c1`, the survival was inactive: 63%.

As for `COc1ccc(Br)cc1S(=O)(=O)N1CCCCCC1`, the survival was inactive: 95%.

Consider `CC(C)Oc1ccc(CNC(=O)c2ccc3nc(SCc4ccc(F)cc4)n(C)c3c2)cc1`, for which the survival was inactive: 101%.

Take `CC(NC(=O)c1ccc2nc(CCc3ccccc3)oc2c1)c1ccccc1` (stereo unspecified): the survival is inactive: 84%.

Turning to `Cc1ccccc1Cn1c(C)c(CNCc2ccccc2)c(C(=O)O)c1C`, the survival was inactive: 84%.

`COc1ccc(Cl)cc1NC(=O)c1cc(S(=O)(=O)N2CCc3ccccc32)cn1C`: the survival is inactive: 82%.

As for `NC(=O)c1ccc2nc(N)sc2c1`, the survival is inactive: 102%.

With `Cc1ccc(-c2nc3cc(N=Cc4ccccc4O)ccc3o2)cc1`, the survival was inactive: 58%.

Consider `COc1cc2c(C(=O)N3CCN(c4cccc(C)c4)C(C)C3)cn(CC(C)C)c(=O)c2cc1OC` (stereo unspecified), for which the survival was active: 46%.

Turning to `Cc1cccc(-n2c(=O)c3ccccc3n(Cc3ccccc3C#N)c2=O)c1`, the survival is inactive: 81%.

As to `Cc1nn(CCC(=O)NC(C)C)c(=O)c2nn(-c3ccccc3)c(C)c12`, the survival was inactive: 74%.

As for `CC(C)c1ccc(C2=CC(c3cccc(Cl)c3)n3ncnc3N2)cc1` (stereo unspecified), the survival was active: -1%.

In the case of `CCC(=O)Nc1sc2c(c1C#N)CCCC2`, the survival was inactive: 97%.

For `Cc1ccc(C)c(Cn2c3ccccc3c3cnn(CC(=O)N4CCCCC4)c(=O)c32)c1`, the survival was inactive: 82%.

For the molecule `CCCN1C(C(=O)c2ccccc2)=C(OC(=O)c2ccc(F)cc2)c2ccccc2S1(=O)=O`, the survival was active: 31%.

Turning to `CCOc1ccc(NC(=O)Cn2c(CCC(=O)O)ccc2-c2ccc(Cl)cc2)cc1`, the survival is inactive: 62%.

`CN(CCC#N)CC1Cc2ccccc2O1` (stereo unspecified): the survival was inactive: 98%.

Take `COc1cccc(C(=O)CN2CCN(S(=O)(=O)c3ccc(Cl)cc3)CC2)c1`: the survival is inactive: 74%.

With `COc1cc2ccccc2cc1C(=O)Nc1ccc2oc(-c3cc(Br)ccc3Cl)nc2c1`, the survival is inactive: 75%.

Turning to `CCOc1ccccc1NC(=O)c1sc2nc3c(cc2c1N)CN(Cc1ccccc1)CC3`, the survival was inactive: 63%.

In the case of `O=C(NCc1ccco1)c1ccc2c(c1)N(Cc1ccc(F)cc1)C(=O)c1ccccc1S2=O` (stereo unspecified), the survival is inactive: 76%.

Take `O=C(CN1C(=O)CSc2ccc(S(=O)(=O)N3CCCCC3)cc21)NCc1ccc(F)cc1Cl`: the survival is inactive: 79%.

As to `COc1cc(NC(=O)CCc2c(C)n(C)c3cc(-c4ccccc4C)nn3c2=O)cc(OC)c1OC`, the survival is inactive: 124%.

`O=C(CSc1nc2c([nH]c3ccccc32)c(=O)n1-c1cccc(Cl)c1)N1CCc2ccccc21`: the survival was inactive: 73%.

With `CCc1nnc(NC(=O)c2nc(S(C)(=O)=O)ncc2Cl)s1`, the survival was inactive: 66%.

Turning to `COc1cccc(Cc2nc3ccccc3nc2SCC(=O)N2CCCCC2C)c1` (stereo unspecified), the survival is inactive: 79%.

As to `Cc1ccc2nc(NCc3ccccc3Cl)c3nnnn3c2c1`, the survival was inactive: 91%.

As for `c1ccc(-c2nnc(CN3CCN(c4ccccc4)CC3)o2)cc1`, the survival was inactive: 57%.

In the case of `COc1ccc(-c2noc(COc3ccc(Br)cc3C)n2)cc1OC`, the survival was active: 33%.

In the case of `O=C(NCC1CCCO1)c1ccc(NC(=O)c2ncn[nH]2)cc1` (stereo unspecified), the survival is inactive: 95%.

For the molecule `CCc1cccc(C)c1NC(=O)Cn1ccn(Cc2ccc(Cl)cc2)c(=O)c1=O`, the survival was active: 41%.

The values are drawn from PubChem BioAssay AID463173 (ICCB-Longwood Screening Facility, Harvard Medical School, 2010).
